No constants are given. Whether binding was seen depends on the method and setting. Binding seen in cells or lysates may run through a third protein. Some binding calls cover weakened binding; strength is not graded here. For some assays here: Sequences can lack the tags named with a protein.
B1: mChe-BBS1+BBS9 (co-expressed) (complex, UniProt Q8NFJ9 1-593; Q3SYG4 1-887)
chain 1: MAAASSSDSDACGAESNEANSKWLDAHYDPMANIHTFSACLALADLHGDGEYKLVVGDLGPGGQQPRLKVLKGPLVMTESPLPALPAAAATFLMEQHEPRTPALALASGPCVYVYKNLRPYFKFSLPQLPPNPLEQDLWNQAKEDRIDPLTLKEMLESIRETAEEPLSIQSLRFLQLELSEMEAFVNQHKSNSIKRQTVITTMTTLKKNLADEDAVSCLVLGTENKELLVLDPEAFTILAKMSLPSVPVFLEVSGQFDVEFRLAAACRNGNIYILRRDSKHPKYCIELSAQPVGLIRVHKVLVVGSTQDSLHGFTHKGKKLWTVQMPAAILTMNLLEQHSRGLQAVMAGLANGEVRIYRDKALLNVIHTPDAVTSLCFGRYGREDNTLIMTTRGGGLIIKILKRTAVFVEGGSEVGPPPAQAMKLNVPRKTRLYVDQTLREREAGTAMHRAFQTDLYLLRLRAARAYLQALESSLSPLSTTAREPLKLHAVVQGLGPTFKLTLHLQNTSTTRPVLGLLVCFLYNEALYSLPRAFFKVPLLVPGLNYPLETFVESLSNKGISDIIKVLVLREGQSAPLLSAHVNMPGSEGLAAA
chain 2: MSLFKARDWWSTILGDKEEFDQGCLCLANVDNSGNGQDKIIVGSFMGYLRIFSPHPAKTGDGAQAEDLLLEVDLRDPVLQVEVGKFVSGTEMLHLAVLHSRKLCVYSVSGTLGNVEHGNQCQMKLMYEHNLQRTACNMTYGSFGGVKGRDLICIQSMDGMLMVFEQESYAFGRFLPGFLLPGPLAYSSRTDSFLTVSSCQQVESYKYQVLAFATDADKRQETEQQKLGSGKRLVVDWTLNIGEQALDICIVSFNQSASSVFVLGERNFFCLKDNGQIRFMKKLDWSPSCFLPYCSVSEGTINTLIGNHNNMLHIYQDVTLKWATQLPHIPVAVRVGCLHDLKGVIVTLSDDGHLQCSYLGTDPSLFQAPNVQSRELNYDELDVEMKELQKIIKDVNKSQGVWPMTEREDDLNVSVVVSPNFDSVSQATDVEVGTDLVPSVTVKVTLQNRVILQKAKLSVYVQPPLELTCDQFTFEFMTPDLTRTVSFSVYLKRSYTPSELEGNAVVSYSRPTDRNPDGIPRVIQCKFRLPLKLICLPGQPSKTASHKITIDTNKSPVSLLSLFPGFASQSDDDQVNVMGFHFLGGARITVLASKTSQRYRIQSEQFEDLWLITNELILRLQEYFEKQGVKDFACSFSGSIPLQEYFELIDHHFELRINGEKLEELLSERAVQFRAIQRRLLARFKDKTPAPLQHLDTLLDGTYKQVIALADAVEENQGNLFQSFTRLKSATHLVILLIALWQKLSADQVAILEAAFLPLQEDTQELGWEETVDAAISHLLKTCLSKSSKEQALNLNSQLNIPKDTSQLKKHITLLCDRLSKGGRLCLSTDAAAPQTMVMPGGCTTIPESDLEERSVEQDSTELFTNHRHLTAETPRPEVSPLQGVSE
B2: mCherry (mChe)-fused BBS1 (protein, UniProt Q8NFJ9 1-593)
chain: B1 chain 1
B3: mCherry (mChe)-fused BBS2 (protein, UniProt Q9BXC9 1-721)
chain: MLLPVFTLKLRHKISPRMVAIGRYDGTHPCLAAATQTGKVFIHNPHTRNQHVSASRVFQSPLESDVSLLSINQAVSCLTAGVLNPELGYDALLVGTQTNLLAYDVYNNSDLFYREVADGANAIVLGTLGDISSPLAIIGGNCALQGFNHEGSDLFWTVTGDNVNSLALCDFDGDGKKELLVGSEDFDIRVFKEDEIVAEMTETEIVTSLCPMYGSRFGYALSNGTVGVYDKTSRYWRIKSKNHAMSIHAFDLNSDGVNELITGWSNGKVDARSDRTGEVIFKDNFSSAIAGVVEGDYRMDGHIQLICCSVDGEIRGYLPGTAEMRGNLMDTSAEQDLIRELSQKKQNLLLELRNYEENAKAELASPLNEADGHRGIIPANTRLHTTLSVSLGNETQTAHTELRISTSNDTIIRAVLIFAEGIFTGESHVVHPSIHNLSSSICIPIVPPKDVPVDLHLKAFVGYRSSTQFHVFESTRQLPRFSMYALTSLDPASEPISYVNFTIAERAQRVVVWLGQNFLLPEDTHIQNAPFQVCFTSLRNGGHLHIKIKLSGEITINTDDIDLAGDIIQSMASFFAIEDLQVEADFPVYFEELRKVLVKVDEYHSVHQKLSADMADHSNLIRSLLVGAEDARLMRDMKTMKSRYMELYDLNRDLLNGYKIRCNNHTELLGNLKAVNQAIQRAGRLRVGKPKNQVITACRDAIRSNNINTLFKIMRVGTASS
B4: mCherry (mChe)-fused BBS9 (protein, UniProt Q3SYG4 1-887)
chain: B1 chain 2

By UniProt entry, the sequences of proteins in these tests, tags left out.
UniProt Q8IY31: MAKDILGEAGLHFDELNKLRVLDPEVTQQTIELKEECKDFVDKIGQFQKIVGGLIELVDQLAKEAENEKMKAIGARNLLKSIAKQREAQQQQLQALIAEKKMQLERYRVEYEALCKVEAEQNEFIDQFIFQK

How the values were obtained:
[1] = target: T1, IFT25–IFT27 (UniProt Q9Y547); test: co-IP; visible immunoprecipitation (VIP) assay: lysates of co-transfected HEK293T cells (HMDEKN buffer: 10 mM HEPES pH 7.4, 5 mM MgSO4, 1 mM DTT, 0.5 mM EDTA, 25 mM KCl, 0.05% NP-40) precipitated by the EGFP fusion with GST-tagged anti-GFP nanobody on glutathione-Sepharose 4B beads; red fluorescence on the beads seen by microscopy
T1 sequence 1: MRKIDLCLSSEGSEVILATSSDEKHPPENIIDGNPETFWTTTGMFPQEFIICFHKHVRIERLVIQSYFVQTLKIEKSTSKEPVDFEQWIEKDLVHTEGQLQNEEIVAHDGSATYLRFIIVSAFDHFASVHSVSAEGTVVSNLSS
T1 sequence 2: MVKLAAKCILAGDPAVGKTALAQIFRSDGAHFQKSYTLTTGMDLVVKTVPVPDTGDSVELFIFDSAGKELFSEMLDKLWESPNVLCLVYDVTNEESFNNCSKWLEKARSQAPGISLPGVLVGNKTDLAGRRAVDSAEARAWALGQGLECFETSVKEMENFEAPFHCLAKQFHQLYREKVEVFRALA

[2] = target: T2, EGFP-IFT38(WT) (human) (UniProt Q96AJ1); test: co-IP; as the VIP assay (EGFP fusion precipitated from HEK293T lysates with GST-tagged anti-GFP nanobody beads), the beads then analysed by conventional immunoblotting with anti-mChe or anti-RFP and anti-GFP antibodies
T2 sequence: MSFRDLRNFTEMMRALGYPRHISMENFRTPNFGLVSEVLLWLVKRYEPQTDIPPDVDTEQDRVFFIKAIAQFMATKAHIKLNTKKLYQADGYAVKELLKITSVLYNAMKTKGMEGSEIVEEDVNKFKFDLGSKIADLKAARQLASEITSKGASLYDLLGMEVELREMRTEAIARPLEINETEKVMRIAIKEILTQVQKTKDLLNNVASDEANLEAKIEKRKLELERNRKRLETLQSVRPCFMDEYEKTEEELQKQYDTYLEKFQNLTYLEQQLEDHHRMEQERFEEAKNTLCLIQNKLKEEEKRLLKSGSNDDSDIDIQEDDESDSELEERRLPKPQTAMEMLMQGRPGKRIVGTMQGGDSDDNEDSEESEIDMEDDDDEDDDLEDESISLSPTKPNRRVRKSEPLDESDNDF

[3] = target: T2, EGFP-IFT38(WT) (human); test: co-IP; visible immunoprecipitation (VIP) assay: lysates of co-transfected HEK293T cells (HMDEKN buffer: 10 mM HEPES pH 7.4, 5 mM MgSO4, 1 mM DTT, 0.5 mM EDTA, 25 mM KCl, 0.05% NP-40) precipitated by the EGFP fusion with GST-tagged anti-GFP nanobody on glutathione-Sepharose 4B beads; red fluorescence on the beads seen by microscopy
[4] = target: T3, EGFP-IFT38(ΔC) (human) (UniProt Q96AJ1); test: as above
T3 sequence: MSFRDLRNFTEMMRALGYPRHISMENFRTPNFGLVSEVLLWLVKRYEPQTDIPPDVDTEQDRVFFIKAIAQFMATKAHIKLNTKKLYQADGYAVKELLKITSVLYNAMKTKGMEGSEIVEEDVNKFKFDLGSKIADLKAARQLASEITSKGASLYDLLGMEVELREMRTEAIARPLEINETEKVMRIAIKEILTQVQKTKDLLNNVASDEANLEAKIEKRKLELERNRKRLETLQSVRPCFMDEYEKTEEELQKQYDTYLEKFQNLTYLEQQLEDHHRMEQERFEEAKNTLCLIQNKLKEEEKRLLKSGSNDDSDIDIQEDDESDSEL

[5] = target: T2, EGFP-IFT38(WT) (human); test: as above; remark: listed apart in the source

Molecule | binding [1] | binding [2] | binding [3] | binding [4] | binding [5]
all subunits of the BBSome (co-expressed, Fig. S1A) (from UniProt Q8NFJ9 1-593; Q9BXC9 1-721; Q96RK4 1-519; Q8N3I7 1-341; Q8IWZ6 1-715; Q8TAM2 1-541; Q3SYG4 1-887; A8MTZ0 1-92) (complex) | no binding |  |  |  | 
core subunits of the BBSome (co-expressed, Fig. S1A) (from UniProt Q8NFJ9 1-593; Q9BXC9 1-721; Q8IWZ6 1-715; Q3SYG4 1-887) (complex) | no binding |  |  |  | 
mChe-BBS2+BBS9 (co-expressed) (from UniProt Q9BXC9 1-721; Q3SYG4 1-887) (complex) |  | binds | binds |  | 
mChe-fused IFT20 (from UniProt Q8IY31 1-132) |  |  | binds | binds | 
B1 |  | binds |  |  | binds
B2 |  | no binding |  |  | no binding
B3 |  | no binding |  |  | no binding
B4 |  | no binding |  |  | no binding

From PMC6777367
